# Experimental data published in the supplement of paper PMC8728848.
# Some of the results follow.
# Key:
# Experiment in all cases: glycan array binding signal (z-score within array); higher = stronger binding
# Conditions in all cases: glycan notation: IUPAC condensed, linker removed; mutation: F355A
# [1] = molecular target: Neu5Ac(a2-3)Gal6S(b1-4)[Fuc(a1-3)]GlcNAc
# How it was run: (§1)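 Columns mapping to the same glycan were averaged after glycan names were converted to IUPAC-condensed notation. The data come from 3228 arrays in the Consortium for Functional Glycomics database, limited to those with an available protein sequence. Binding is reported as a within-array Z-score averaged across arrays of one protein sequence and across linkers.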
# Neu5Ac(a2-3)GalNAc = molecular target: Neu5Ac(a2-3)GalNAc
# How it was run: as §1
# [2] = molecular target: Neu5Ac(a2-3)GalNAc(b1-4)GlcNAc
# How it was run: as §1
# [3] = molecular target: Neu5Ac(a2-3)[GalNAc(b1-4)]Gal(b1-4)Glc
# How it was run: as §1
# [4] = molecular target: Neu5Ac(a2-3)[GalNAc(b1-4)]Gal(b1-4)GlcNAc
# How it was run: as §1
# [5] = molecular target: Neu5Ac(a2-3)[Neu5Ac(a2-6)]GalNAc
# How it was run: as §1
# Neu5Ac(a2-6)Gal = molecular target: Neu5Ac(a2-6)Gal
# How it was run: as §1
# Neu5Ac(a2-6)Gal(b1-4)Glc = molecular target: Neu5Ac(a2-6)Gal(b1-4)Glc
# How it was run: as §1
# [6] = molecular target: Neu5Ac(a2-6)Gal(b1-4)GlcNAc
# How it was run: as §1
# [7] = molecular target: Neu5Ac(a2-6)Gal(b1-4)GlcNAc(b1-2)Man(a1-3)[Gal(b1-4)GlcNAc(b1-2)Man(a1-6)]Man(b1-4)GlcNAc(b1-4)GlcNAc
# How it was run: as §1
# [8] = molecular target: Neu5Ac(a2-6)Gal(b1-4)GlcNAc(b1-2)Man(a1-3)[GlcNAc(b1-2)Man(a1-6)]Man(b1-4)GlcNAc(b1-4)GlcNAc
# How it was run: as §1
# [9] = molecular target: Neu5Ac(a2-6)Gal(b1-4)GlcNAc(b1-2)Man(a1-3)[GlcNAc(b1-2)Man(b1-4)GlcNAc(b1-2)Man(a1-6)]Man(b1-4)GlcNAc(b1-4)GlcNAc
# How it was run: as §1
# [10] = molecular target: Neu5Ac(a2-6)Gal(b1-4)GlcNAc(b1-2)Man(a1-3)[Neu5Ac(a2-6)Gal(b1-4)GlcNAc(b1-2)Man(a1-6)]Man(b1-4)GlcNAc(b1-4)GlcNAc
# How it was run: as §1
# [11] = molecular target: Neu5Ac(a2-6)Gal(b1-4)GlcNAc(b1-2)Man(a1-6)[Gal(b1-4)GlcNAc(b1-2)Man(a1-3)]Man(b1-4)GlcNAc(b1-4)GlcNAc
# How it was run: as §1
# [12] = molecular target: Neu5Ac(a2-6)Gal(b1-4)GlcNAc(b1-2)Man(a1-6)[GlcNAc(b1-2)Man(a1-3)]Man(b1-4)GlcNAc(b1-4)GlcNAc
# How it was run: as §1
# [13] = molecular target: Neu5Ac(a2-6)Gal(b1-4)GlcNAc(b1-3)Gal(b1-4)GlcNAc
# How it was run: as §1
# [14] = molecular target: Neu5Ac(a2-6)Gal(b1-4)GlcNAc(b1-3)Gal(b1-4)[Fuc(a1-3)]GlcNAc(b1-3)Gal(b1-4)[Fuc(a1-3)]GlcNAc
# How it was run: as §1
# [15] = molecular target: Neu5Ac(a2-6)Gal(b1-4)GlcNAc6S
# How it was run: as §1
# Neu5Ac(a2-6)GalNAc = molecular target: Neu5Ac(a2-6)GalNAc
# How it was run: as §1
# [16] = molecular target: Neu5Ac(a2-6)GalNAc(b1-4)GlcNAc
# How it was run: as §1
# Neu5Ac(a2-8)Neu5Ac = molecular target: Neu5Ac(a2-8)Neu5Ac
# How it was run: as §1
# [17] = molecular target: Neu5Ac(a2-8)Neu5Ac(a2-3)Gal(b1-4)Glc
# How it was run: as §1
# [18] = molecular target: Neu5Ac(a2-8)Neu5Ac(a2-3)[GalNAc(b1-4)]Gal(b1-4)Glc
# How it was run: as §1
# [19] = molecular target: Neu5Ac(a2-8)Neu5Ac(a2-8)Neu5Ac
# How it was run: as §1
# [20] = molecular target: Neu5Ac(a2-8)Neu5Ac(a2-8)Neu5Ac(a2-3)Gal(b1-4)Glc
# How it was run: as §1
# [21] = molecular target: Neu5Ac(a2-8)Neu5Ac(a2-8)Neu5Ac(a2-3)[GalNAc(b1-4)]Gal(b1-4)Glc
# How it was run: as §1
# [22] = molecular target: Neu5Ac(a2-8)Neu5Ac(a2-8)Neu5Ac(a2-8)Neu5Ac(a2-3)[GalNAc(b1-4)]Gal(b1-4)Glc
# How it was run: as §1
# [23] = molecular target: Neu5Ac(b2-6)Gal(b1-4)GlcNAc
# How it was run: as §1
# Neu5Ac(b2-6)GalNAc = molecular target: Neu5Ac(b2-6)GalNAc
# How it was run: as §1
# [24] = molecular target: Neu5Ac9Ac(a2-6)Gal(b1-4)GlcNAc
# How it was run: as §1
# [25] = molecular target: Neu5Gc(a2-3)Gal(b1-3)GlcNAc
# How it was run: as §1
# [26] = molecular target: Neu5Gc(a2-3)Gal(b1-3)[Fuc(a1-4)]GlcNAc
# How it was run: as §1
# Neu5Gc(a2-3)Gal(b1-4)Glc = molecular target: Neu5Gc(a2-3)Gal(b1-4)Glc
# How it was run: as §1
# [27] = molecular target: Neu5Gc(a2-3)Gal(b1-4)GlcNAc
# How it was run: as §1
# [28] = molecular target: Neu5Gc(a2-3)Gal(b1-4)[Fuc(a1-3)]GlcNAc
# How it was run: as §1
# [29] = molecular target: Neu5Gc(a2-6)Gal(b1-4)GlcNAc
# How it was run: as §1
# Neu5Gc(a2-6)GalNAc = molecular target: Neu5Gc(a2-6)GalNAc
# How it was run: as §1
# [30] = molecular target: Neu5Gc(b2-6)Gal(b1-4)GlcNAc
# How it was run: as §1
binder,measurement,setting,value
Surfactant Protein D (Human); Neck + Carbohydrate Recognition Domain (NCRD) (Homo sapiens) (protein) MLLFLLSALVLLTQPLGYLEAEMKTYSHRTMPSACTLVMCSSVESGLPGRDRDGREGPRGEKGDPGLPGAAGQAGMPGQAGPVGPKGDNGSVGEPGPKGDTGPSGPPGPPGVPGPAGREGALGKQGNIGPQGKPGPKGEAGPKGEVGAPGMQGSAGARGLAGPKGERGVPGERGVPGNTGAAGSAGAMGPQGSPGARGPPGLKGDKGIPGDKGAKGESGLPDVASLRQQVEALQGQVQHLQAAFSQYKKVELFPNGQSVGEKIFKTAQFVKPFTEAQLLCTQAGGQLASPRSAAENAALQQLVVAKNEAAFLSMTDSKTEGKFTYPTGESLVYSNWAPGEPNDDGGSEDCVEIFTNGKWNDRACGEKRLVVCEA,glycan array binding signal (z-score),[1],-0.145
same,glycan array binding signal (z-score),Neu5Ac(a2-3)GalNAc,-0.149
same,glycan array binding signal (z-score),[2],-0.14
same,glycan array binding signal (z-score),[3],-0.137
same,glycan array binding signal (z-score),[4],-0.138
same,glycan array binding signal (z-score),[5],-0.103
same,glycan array binding signal (z-score),Neu5Ac(a2-6)Gal,-0.145
same,glycan array binding signal (z-score),Neu5Ac(a2-6)Gal(b1-4)Glc,-0.137
same,glycan array binding signal (z-score),[6],-0.108
same,glycan array binding signal (z-score),[7],-0.09
same,glycan array binding signal (z-score),[8],-0.126
same,glycan array binding signal (z-score),[9],-0.137
same,glycan array binding signal (z-score),[10],-0.13
same,glycan array binding signal (z-score),[11],-0.15
same,glycan array binding signal (z-score),[12],-0.126
same,glycan array binding signal (z-score),[13],-0.159
same,glycan array binding signal (z-score),[14],-0.155
same,glycan array binding signal (z-score),[15],-0.164
same,glycan array binding signal (z-score),Neu5Ac(a2-6)GalNAc,-0.155
same,glycan array binding signal (z-score),[16],-0.126
same,glycan array binding signal (z-score),Neu5Ac(a2-8)Neu5Ac,-0.095
same,glycan array binding signal (z-score),[17],-0.136
same,glycan array binding signal (z-score),[18],-0.098
same,glycan array binding signal (z-score),[19],-0.151
same,glycan array binding signal (z-score),[20],-0.134
same,glycan array binding signal (z-score),[21],-0.136
same,glycan array binding signal (z-score),[22],-0.132
same,glycan array binding signal (z-score),[23],-0.153
same,glycan array binding signal (z-score),Neu5Ac(b2-6)GalNAc,-0.157
same,glycan array binding signal (z-score),[24],-0.153
same,glycan array binding signal (z-score),[25],-0.141
same,glycan array binding signal (z-score),[26],-0.167
same,glycan array binding signal (z-score),Neu5Gc(a2-3)Gal(b1-4)Glc,-0.166
same,glycan array binding signal (z-score),[27],-0.136
same,glycan array binding signal (z-score),[28],-0.145
same,glycan array binding signal (z-score),[29],-0.118
same,glycan array binding signal (z-score),Neu5Gc(a2-6)GalNAc,-0.149
same,glycan array binding signal (z-score),[30],-0.136
